The source of these data is ChEMBL document CHEMBL4888484, “Replenishing the malaria drug discovery pipeline: Screening and hit evaluation of the MMV Hit Generation Library 1 (HGL1) against asexual blood stage Plasmodium falciparum ,using a nano luciferase reporter read-out” (2022).

Hit rate of the full screen: of about 150,000 compounds, about 540 (0.36%) showed an effect of 50% or more. Some of the results follow.

This assay concerns Plasmodium falciparum. The assay can be described thus: Primary screen in NF54 nanoGlo assay, in single point, at 2uM, 72h; a lower Z score goes with more inhibition. As to conditions: timepoint 72 hour. Format: functional, Erythrocyte.
What is called % Inhibition is the drop in the measured response relative to a control, in per cent. For `COc1cc(NC(=O)[C@@H]2CCCN2C(=O)C2CCC(C)CC2)cc(OC)c1OC` (some centres undefined), the “% Inhibition” value stood at 29% and the Z score is -3.32.

As to `O=C(Nc1ccccc1N1CCCN(Cc2ccc(F)cc2)C1=O)c1ccco1`, the “% Inhibition” value was -1% and the Z score came to 0.16.

As to `Cn1cc(CN2CCOCCNC(=O)CC2)c2ccccc21`, the “% Inhibition” value was -5% and the Z score is listed as 0.66.

`CC(=O)Nc1onc(C)c1-c1ccc(C)c(S(=O)(=O)Nc2cccc(C)c2C)c1`: the “% Inhibition” value is recorded as -9% and the Z score worked out at 1.31.

In the case of `COc1ccc(CC(=O)N2CCC(COCc3ccc(Cl)cc3)CC2)cc1OC`, the “% Inhibition” value is 16% and the Z score was -1.78.

Regarding `NC(=O)c1ccc(N2CCOC3(CCCC3)C2)nn1`, the “% Inhibition” value is listed as 12% and the Z score was -1.42.

Consider `CC(C)Cc1ncc(C(=O)Nc2snc3ncccc23)s1`, for which the “% Inhibition” value is 15% and the Z score is listed as -2.9.

As for `CCCc1noc(C(C)NC2CCN(C(=O)CC)CC2C)n1` (centres undefined), the “% Inhibition” value is -12% and the Z score was determined as 1.83.

`COc1cncc(C(=O)N(CC(F)(F)F)C2CCCC2)n1`: the “% Inhibition” value is given as 1% and the Z score was -0.17.

For the compound `O=C(N1CCc2[nH]c3ccc(F)cc3c(=O)c2C1)C(F)(F)F`, the “% Inhibition” value is on record as -1% and the Z score turned out to be 0.19.

With `COc1ccccc1CNC(=O)CN1CC[C@](C)(O)[C@@H](O)C1`, the “% Inhibition” value was -10% and the Z score stood at 1.27.

On to `CNC(=O)CCC(C)(C)NC(=O)c1ccoc1`, for which the “% Inhibition” value was -2% and the Z score is listed as 0.33.

Regarding `CC(C)c1noc(-c2cc(C3CC3)n(C)n2)n1`, the “% Inhibition” value is listed as -11% and the Z score came to 1.08.

On to `O=C(N[C@H]1CCOC[C@@H]1OCC1CCC1)c1nccnc1O`, for which the “% Inhibition” value is on record as -20% and the Z score was 3.19.

Turning to `CCn1ccc(C(=O)N2CCC[C@H](CN3CCC(C)CC3)CC2)n1`, the “% Inhibition” value is given as -2% and the Z score is reported as 0.39.

As to `CN1CCN(S(=O)(=O)c2ccc(Cl)cc2)C[C@H]1c1ccccc1`, the “% Inhibition” value was 35% and the Z score was -3.99.

Consider `CN(C)CCNCCOCCOc1ccccc1`, for which the “% Inhibition” value is -5% and the Z score was 0.73.

As for `COc1cccc([C@H]2CN(c3cc(C)ccn3)C[C@@H]2C(=O)O)c1OC`, the “% Inhibition” value is -4% and the Z score is 0.43.

Consider `CN(C)c1cc(N[C@H]2CCC[C@@H]2N(C)C)ncn1`, for which the “% Inhibition” value is -4% and the Z score is 0.54.

In the case of `CC(C1CC1)n1cc(NC(=O)N2CCC(C(F)(F)F)C2(C)C)cn1` (centres undefined), the “% Inhibition” value was -10% and the Z score worked out at 1.23.

Take `CN(Cc1ccc(F)cc1Cl)C(N)=O`: the “% Inhibition” value was -9% and the Z score was determined as 1.22.

As for `COc1cccc(Cl)c1-c1ncnc2sc(C)c(C)c12`, the “% Inhibition” value is on record as -2% and the Z score was 0.23.

On to `Cc1cc(C)nc(NCCCC(=O)Nc2cnn(C)c2)n1`, for which the “% Inhibition” value was -5% and the Z score stood at 0.59.

Take `CCCNc1nc(-c2ccc3c(c2)OCO3)cs1`: the “% Inhibition” value is on record as -4% and the Z score was 0.48.

Regarding `O=C(COc1ccccc1)N[C@H]1CC[C@H](Oc2cnccn2)CC1`, the “% Inhibition” value is listed as -11% and the Z score stood at 1.27.

On to `Cc1ncc(C)c(-c2cccc(-c3ccn(CCn4cccn4)n3)c2)n1`, for which the “% Inhibition” value is listed as -10% and the Z score was determined as 1.47.

With `COc1ccc2c(c1)CCCN(C(=O)N[C@H]1CCS(=O)(=O)C1)C2`, the “% Inhibition” value was 5% and the Z score is -0.44.

On to `CNS(=O)(=O)c1ccc2c(c1)CCN2`, for which the “% Inhibition” value is recorded as -14% and the Z score was found to be 2.67.

`Cn1cc(CN2CCn3nc(CO)cc3C2)cn1`: the “% Inhibition” value is -16% and the Z score is 1.64.

Regarding `OC(CN1CCCCC1Cn1cncn1)c1ccccc1F` (centres undefined), the “% Inhibition” value came to 4% and the Z score is -0.56.

Turning to `Cc1nc(C2CC(O)C2)cc(N2CCCCCCC2)n1` (centres undefined), the “% Inhibition” value is on record as -1% and the Z score came to 0.11.

For `Cc1cnc([C@@H](Nc2ncc(C(F)(F)F)cc2Cl)C2CC2)s1`, the “% Inhibition” value was -9% and the Z score was 0.8.

`CCOc1ccc(N2C[C@@H](c3nnc(NC(=O)c4cccc(Cl)c4)o3)CC2=O)cc1`: the “% Inhibition” value turned out to be 4% and the Z score is -0.6.

For the compound `O=C(O)c1ccc(CN2C[C@H]3COCC[C@@]3(O)[C@@H]3COCC[C@@H]32)cc1`, the “% Inhibition” value is -4% and the Z score came out at 0.66.

Regarding `Cc1ccc(-n2nc(C)c3nc(CCC(=O)NCCCN4CCCCC4)c(=O)n(C)c32)cc1`, the “% Inhibition” value is -9% and the Z score turned out to be 1.27.

As for `CC(C)c1nnc(CN2CCN(C)S2(=O)=O)s1`, the “% Inhibition” value was -9% and the Z score is given as 1.73.

Take `CCCN(CC(=O)N1CCN(c2ccc(-c3cccc(OC)c3)nn2)CC1)S(=O)(=O)c1ccc(OC)cc1`: the “% Inhibition” value was -6% and the Z score turned out to be 0.95.

`O=C(O)c1ccc2[nH]c3c(c2c1)CN(C(=O)c1ccc2c(c1)CCOC2)CC3`: the “% Inhibition” value is given as -3% and the Z score is listed as 0.51.

In the case of `Cc1ccc(-c2nn(C)cc2C(=O)N[C@@H]2COC(C)(C)C2)o1`, the “% Inhibition” value was -4% and the Z score is recorded as 0.68.

Turning to `CC(C)Oc1ccc(C(=O)N(Cc2ccc(N(C)C)cc2)[C@H]2CCS(=O)(=O)C2)cc1`, the “% Inhibition” value is given as -9% and the Z score is listed as 0.8.

For the compound `Cc1ncc(C(C)C)c(NCc2ccc(CN)cc2)n1`, the “% Inhibition” value was -10% and the Z score is 1.86.

For the compound `Nc1c2c(-c3cccc(F)c3)nc(NCc3ccccc3)nc2nn1-c1cc(F)ccc1F`, the “% Inhibition” value was -4% and the Z score is listed as 0.56.
